{"source": "PubChem BioAssay AID504333", "about": "(National Center for Advancing Translational Sciences (NCATS), 2011)", "note": "Hit rate of the full screen: of about 360,000 compounds, about 16,000 (4.4%) were called active. This list was built around the results that the source calls inconclusive (neither active nor inactive); the mix of calls is not that of the screen. Calls follow the shape of the dose curve; as a rule, active = well fitted inhibition curve with a large enough effect; inconclusive = small, poorly fitted or top-dose-only effect; inactive = no such curve, though single readings can be large or run the other way. Potencies beside an inconclusive call are fits to weak or partial responses and may not hold up. Potency is read from the fitted curve at half-maximal effect; tags tell the direction and shape of the fitted curve."}
{"biological_target": "Bromodomain adjacent to zinc finger domain protein 2B (Homo sapiens) (UniProt Q9UIF8)", "sequence (Q9UIF8 whole entry, looked up, the tested form may be a part)": "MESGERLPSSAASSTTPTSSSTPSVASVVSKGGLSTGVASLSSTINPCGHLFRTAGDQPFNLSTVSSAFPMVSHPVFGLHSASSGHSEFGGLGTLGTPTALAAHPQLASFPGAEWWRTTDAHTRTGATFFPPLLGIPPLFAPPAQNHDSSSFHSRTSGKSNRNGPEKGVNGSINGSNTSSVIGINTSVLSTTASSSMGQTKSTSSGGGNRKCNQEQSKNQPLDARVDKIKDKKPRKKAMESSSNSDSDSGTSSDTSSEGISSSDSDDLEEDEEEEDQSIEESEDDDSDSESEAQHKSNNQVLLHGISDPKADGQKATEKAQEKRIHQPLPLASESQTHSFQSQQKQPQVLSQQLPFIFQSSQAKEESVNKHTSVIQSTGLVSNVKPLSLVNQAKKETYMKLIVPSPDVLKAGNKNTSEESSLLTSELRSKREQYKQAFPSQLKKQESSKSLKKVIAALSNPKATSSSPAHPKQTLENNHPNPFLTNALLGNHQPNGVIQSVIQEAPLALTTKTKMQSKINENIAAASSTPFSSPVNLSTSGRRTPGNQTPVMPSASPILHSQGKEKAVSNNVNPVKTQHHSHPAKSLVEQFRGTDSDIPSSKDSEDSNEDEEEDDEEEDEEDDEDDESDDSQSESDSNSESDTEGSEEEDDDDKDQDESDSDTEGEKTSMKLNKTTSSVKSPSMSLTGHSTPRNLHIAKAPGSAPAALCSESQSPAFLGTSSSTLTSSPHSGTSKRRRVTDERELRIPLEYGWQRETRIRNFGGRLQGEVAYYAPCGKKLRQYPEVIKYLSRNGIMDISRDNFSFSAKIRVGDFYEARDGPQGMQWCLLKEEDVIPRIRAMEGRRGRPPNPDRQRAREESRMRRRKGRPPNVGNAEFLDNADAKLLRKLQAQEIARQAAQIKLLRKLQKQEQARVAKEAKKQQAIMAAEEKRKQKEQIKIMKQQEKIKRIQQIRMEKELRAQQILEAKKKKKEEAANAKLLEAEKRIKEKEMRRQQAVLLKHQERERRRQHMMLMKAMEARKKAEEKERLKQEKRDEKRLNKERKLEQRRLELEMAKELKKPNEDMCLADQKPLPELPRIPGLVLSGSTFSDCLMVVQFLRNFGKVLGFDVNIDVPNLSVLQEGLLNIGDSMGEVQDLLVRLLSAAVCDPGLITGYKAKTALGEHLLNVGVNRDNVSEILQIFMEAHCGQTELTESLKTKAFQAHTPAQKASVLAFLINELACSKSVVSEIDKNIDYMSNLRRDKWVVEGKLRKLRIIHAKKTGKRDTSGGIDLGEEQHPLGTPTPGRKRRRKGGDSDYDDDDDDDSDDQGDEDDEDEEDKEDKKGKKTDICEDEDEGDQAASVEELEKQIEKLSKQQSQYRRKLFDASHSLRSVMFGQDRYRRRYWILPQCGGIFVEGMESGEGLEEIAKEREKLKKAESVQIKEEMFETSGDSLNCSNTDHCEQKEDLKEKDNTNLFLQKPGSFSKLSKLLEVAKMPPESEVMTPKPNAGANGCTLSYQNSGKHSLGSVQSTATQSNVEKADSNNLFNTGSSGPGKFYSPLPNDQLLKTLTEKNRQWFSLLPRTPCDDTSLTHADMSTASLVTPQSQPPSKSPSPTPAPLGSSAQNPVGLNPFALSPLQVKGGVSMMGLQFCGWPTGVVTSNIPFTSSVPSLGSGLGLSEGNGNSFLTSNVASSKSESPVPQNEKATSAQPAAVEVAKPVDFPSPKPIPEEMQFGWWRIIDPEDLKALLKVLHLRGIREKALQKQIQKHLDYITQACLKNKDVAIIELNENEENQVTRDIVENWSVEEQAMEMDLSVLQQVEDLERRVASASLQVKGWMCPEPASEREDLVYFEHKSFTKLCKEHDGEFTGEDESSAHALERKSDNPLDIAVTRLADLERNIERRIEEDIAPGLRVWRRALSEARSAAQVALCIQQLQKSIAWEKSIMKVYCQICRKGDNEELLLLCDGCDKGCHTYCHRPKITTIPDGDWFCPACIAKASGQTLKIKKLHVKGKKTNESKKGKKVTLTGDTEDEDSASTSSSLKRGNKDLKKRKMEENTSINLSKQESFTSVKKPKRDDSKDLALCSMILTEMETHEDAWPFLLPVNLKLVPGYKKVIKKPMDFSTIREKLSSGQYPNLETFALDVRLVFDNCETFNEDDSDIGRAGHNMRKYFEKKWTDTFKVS", "assay": "qHTS Assay for Inhibitors of BAZ2B; also: nearly all actives have a fitted effect of over 60% in size", "conditions": "AlphaScreen BAZ2B-H3K14Ac peptide displacement; series mostly up to 114 µM", "procedure,_shortened": "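BAZ2B (50 nM) with biotin-H3(5-23)K14Ac peptide (50 nM) in PBS pH 7.4, 0.01% Tween-20, preformed 30 min, then compound 30 min at room temperature; top concentration 110uM. AlphaScreen streptavidin donor/nickel chelate acceptor beads (10 ug/mL final), 20 min dark, signal read.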"}
{"smiles": "O=C(CSc1nc2ccccc2c(=O)n1-c1ccccc1)NC(=O)CN1CCCC1=O", "Potency": "active: 79.4 µM"}
{"smiles": "Cc1cc(-c2ccccc2)nc(N(C)NC(=O)c2cccc(C(F)(F)F)c2)c1S(C)(=O)=O", "Potency": "inconclusive: 7.08 µM [inhibitor, single point]"}
{"smiles": "CC(=O)c1ccc(N=Nc2ccc(C)cc2)cc1", "Potency": "active: 7.94 µM"}
{"smiles": "CC(=O)N1CCN(Cc2nc3cc(NC(=O)COc4cccc(C)c4)ccc3n2C)CC1", "Potency": "inconclusive: 89.1 µM [inhibitor, single point]"}
{"smiles": "Cc1ccccc1OCc1ccc(-c2nc(C#N)c(N3CCC(C(N)=O)CC3)o2)o1", "Potency": "inconclusive: 20 µM [inhibitor, full curve]"}
{"smiles": "Cc1nn(-c2ccc(C(=O)O)cc2)c(C)c1Oc1ccccc1O", "Potency": "inconclusive: 12.6 µM [inhibitor, full curve]"}
{"smiles": "O=C1NCCCCC1NC1CC(=O)N(c2ccccc2)C1=O", "note": "(configuration not stated)", "Potency": "inactive"}
{"smiles": "Cc1ccc(NC(=O)CCNS(=O)(=O)c2ccccc2F)cc1S(=O)(=O)N1CCOCC1", "Potency": "inactive"}
{"smiles": "Cc1ccc(N2CC(C)Cn3c2nc2c3c(=O)n(CC(=O)OCc3ccccc3)c(=O)n2C)cc1C", "note": "(configuration not stated)", "Potency": "inactive"}
{"smiles": "CN1CCN(NC(=O)c2cccs2)CC1", "Potency": "inactive"}
{"smiles": "CCN1CCN(Cc2ccc(NC(=O)c3cc(NC(=O)c4cnn(-c5ccccc5)c4N)cc(OC)c3)cc2C(F)(F)F)CC1", "Potency": "inconclusive: 63.1 µM [inhibitor, partial curve, poor fit]"}
{"smiles": "CCOC(=O)N1CCN(C(=O)c2c(-c3c(Cl)cccc3Cl)noc2C)CC1", "Potency": "inactive"}
{"smiles": "CCOc1ccc2nc(N(CCCN(C)C)C(=O)c3ccc(S(=O)(=O)N4CCCC4)cc3)sc2c1", "Potency": "inconclusive: 79.4 µM [inhibitor, single point]"}
{"smiles": "COc1cc(NC(=O)CC2C(=O)N(c3cccc(C)c3)C(=O)N2Cc2cccs2)cc(OC)c1", "note": "(configuration not stated)", "Potency": "inactive"}
{"smiles": "O=C(CC1C(=O)NCCN1Cc1c(F)cccc1Cl)NC1CCCC1", "note": "(configuration not stated)", "Potency": "inactive"}
{"smiles": "CCCCCC/C=N/Nc1nnc(Cc2ccc(OC)c(OC)c2)c(=O)[nH]1", "Potency": "active: 7.08 µM"}
{"smiles": "O=C(COc1cccc2ccccc12)NNC(=O)c1cnccn1", "Potency": "inactive"}
{"smiles": "CC(=O)NC(Cc1ccccc1)C(=O)OCC(=O)c1ccccc1", "note": "(configuration not stated)", "Potency": "inconclusive: 89.1 µM [inhibitor, single point]"}
{"smiles": "Cc1ccc(NC(=O)CN2C(=O)S/C(=C\\c3ccc(-c4cccc(C(=O)O)c4C)o3)C2=O)cc1C", "Potency": "active: 15.8 µM"}
{"smiles": "COC(=O)CC1Oc2ccc(C)cc2-n2cc(-c3ccc(C)cc3)nc21", "note": "(configuration not stated)", "Potency": "active: 50.1 µM"}
{"smiles": "COc1ccc(S(=O)(=O)N2N=C(c3cccc(NS(C)(=O)=O)c3)CC2c2ccco2)cc1", "note": "(configuration not stated)", "Potency": "inactive"}
{"smiles": "NS(=O)(=O)c1ccc(CCNC(=O)C(=O)Nc2cc3c4c(c2)CC(=O)N4CCC3)cc1", "Potency": "inactive"}
{"smiles": "Cc1ccc(NC(=O)CSC2=C(C#N)C(c3ccco3)CC(=O)N2)cc1", "note": "(configuration not stated)", "Potency": "inconclusive: 4.47 µM [inhibitor, partial curve, poor fit]"}
{"smiles": "C=CCc1cc(/C=C/c2nc(O)c([N+](=O)[O-])c(=O)[nH]2)cc(OC)c1O", "Potency": "inconclusive: 56.2 µM [inhibitor, partial curve]"}
{"smiles": "O=C(O)C(c1ccccc1)N1C(=O)c2ccccc2C1=O", "note": "(configuration not stated)", "Potency": "inactive"}
{"smiles": "Cc1ccc(N2C(=S)NC3c4ccccc4OC2(C)C3C(=O)N(C)C)cc1", "note": "(configuration not stated)", "Potency": "inconclusive: 89.1 µM [inhibitor, single point]"}
{"smiles": "COc1cc(/C=N/NC(N)=O)ccc1OCC(=O)Nc1ccc(C)c(C)c1", "Potency": "inconclusive: 89.1 µM [inhibitor, single point]"}
{"smiles": "COc1ccc(NCc2ccc([N+](=O)[O-])s2)c(OC)c1", "Potency": "active: 31.6 µM"}
{"smiles": "Cc1nn(C(=O)c2cc([N+](=O)[O-])ccc2Cl)c(C)c1Br", "Potency": "inconclusive: 31.6 µM [inhibitor, partial curve]"}
{"smiles": "O=C1[C@H]2[C@@H](C(=O)N1c1cc(Cl)cc(Cl)c1)[C@]1(C(=O)Nc3ccccc31)N1CCC[C@@H]21", "Potency": "inconclusive: 50.1 µM [inhibitor, partial curve]"}
{"smiles": "O=C(c1ccccc1)N1CCN(C2CC3CCC2C3)CC1", "note": "(configuration not stated)", "Potency": "inconclusive: 89.1 µM [inhibitor, single point]"}
{"smiles": "COc1ccc(C=C2C(=O)c3ccccc3C2=O)cc1O", "Potency": "active: 10 µM"}
{"smiles": "COc1ccccc1C(=O)NNC(=O)C1CC=CCC1", "note": "(configuration not stated)", "Potency": "inconclusive: 89.1 µM [inhibitor, single point]"}
{"smiles": "C=C1CN(Cc2ccccc2)S(=O)(=O)c2ccccc21", "Potency": "inconclusive: 89.1 µM [inhibitor, single point]"}
{"smiles": "Cc1ccc(C(C[N+](=O)[O-])Sc2ccc(N)cc2)cc1", "note": "(configuration not stated)", "Potency": "inconclusive: 44.7 µM [inhibitor, partial curve]"}
{"smiles": "CCN1C(=NCCOC)N[C@@H](c2cccc(C(F)(F)F)c2)C(C(=O)OC)=C1C", "Potency": "inconclusive: 100 µM [inhibitor, single point]"}
{"smiles": "COc1ccc(NC(=S)NCc2ccccn2)cc1OC", "Potency": "inconclusive: 89.1 µM [inhibitor, single point]"}
{"smiles": "COc1ccc(N2CCN(c3oc(Cc4ccccc4)nc3C#N)CC2)cc1", "Potency": "active: 8.91 µM"}
{"smiles": "CCCn1nnnc1NC(=O)CSc1ccc(Cl)cc1", "Potency": "inconclusive: 89.1 µM [inhibitor, single point]"}
{"smiles": "O=c1c(C(c2ccccc2)c2c(O)nc3n(c2=O)CCCS3)c(O)nc2n1CCCS2", "Potency": "inconclusive: 79.4 µM [inhibitor, single point]"}
{"smiles": "O=C1CSC(=Nc2cccc([N+](=O)[O-])c2)N1", "Potency": "inconclusive: 3.55 µM [inhibitor, single point]"}
{"smiles": "COc1c(C)cccc1C(=O)Nc1ccc(N2CCN(C(=O)c3ccccc3C)CC2)cc1", "Potency": "inconclusive: 39.8 µM [inhibitor, partial curve]"}
{"smiles": "Cc1ccc(OCC(O)Cn2c(=N)n(CCN3CCCCC3)c3ccccc32)cc1", "note": "(configuration not stated)", "Potency": "inactive"}
{"smiles": "O=S(=O)(Nc1cccc(S(=O)(=O)N2CCCC2)c1)c1cccc(Br)c1", "Potency": "inconclusive: 89.1 µM [inhibitor, single point]"}
{"smiles": "CCOc1ccc(Nc2nc(N3CCCC3)nc(N3CCN(c4ccc(OC)cc4)CC3)n2)cc1", "Potency": "inactive"}
{"smiles": "COc1cc(/C=C2/S/C(=N/S(=O)(=O)c3ccccc3)NC2=O)c([N+](=O)[O-])cc1OC", "Potency": "active: 70.8 µM"}
{"smiles": "CCOc1ccc(C2/C(=C(\\O)c3ccc4c(c3)OCCO4)C(=O)C(=O)N2CCN2CCOCC2)cc1OCC", "note": "(configuration not stated)", "Potency": "inactive"}
{"smiles": "CCOc1ccc(N/C=C/C(=O)c2ccc(OC)cc2)c([N+](=O)[O-])c1", "Potency": "inconclusive: 100 µM [inhibitor, partial curve, poor fit]"}
{"smiles": "N#CC1=C(S)N(c2ccccc2)C(c2ccco2)NC1=O", "note": "(configuration not stated)", "Potency": "inconclusive: 89.1 µM [inhibitor, partial curve]"}
{"smiles": "COC(=O)c1ccc(C(C2C(=O)CC(C)(C)CC2=O)C2C(=O)CC(C)(C)CC2=O)cc1", "Potency": "inactive"}
{"smiles": "C=CCNc1nc2c3ccccc3n(C(C)=O)c2s1", "Potency": "inconclusive: 89.1 µM [inhibitor, single point]"}
{"smiles": "COc1ccc(/C=C/C(=O)c2ccc(O)cc2)cc1", "Potency": "inconclusive: 79.4 µM [inhibitor, single point]"}
{"smiles": "COc1ccc(Cl)cc1S(=O)(=O)N(C)CC(=O)N1CCOCC1", "Potency": "inactive"}
{"smiles": "Cc1cccc2c1NC(=O)C21N2CCCC2C(C(=O)c2ccc3ccccc3c2)C12C(=O)Nc1ccccc12", "note": "(configuration not stated)", "Potency": "inconclusive: 39.8 µM [inhibitor, partial curve]"}
{"smiles": "COC(=O)c1cc(O)c(O)c(O)c1", "Potency": "active: 79.4 µM"}
{"smiles": "CN(C)S(=O)(=O)N(CC(=O)Nc1ccc(S(=O)(=O)N2CCCC2)cc1)c1ccccc1", "Potency": "inactive"}
{"smiles": "CCOc1ccc(CCNC(=O)c2ccc3ccccc3n2)cc1OCC", "Potency": "inactive"}
{"smiles": "O=c1cc[nH]c2c1ccc1cccnc12", "Potency": "active: 56.2 µM"}
{"smiles": "N#CC1=C(Nc2ccccc2)SC=C(c2ccc(Br)cc2)N=C1N1CCOCC1", "Potency": "inconclusive: 89.1 µM [inhibitor, single point]"}
{"smiles": "COc1ccc(C(=O)NCCCNC(=O)c2ccccn2)cc1", "Potency": "inactive"}
{"smiles": "COc1ccc(/C=N/Nc2nnc(Cc3ccc(OC)c(OC)c3)c(=O)[nH]2)cc1", "Potency": "inconclusive: 89.1 µM [inhibitor, single point]"}
{"smiles": "C=CCOc1ccc(/C=C/C(=O)OCC(=O)NCc2cccc(OC)c2)cc1", "Potency": "inactive"}
{"smiles": "CC1(C)CSC(=NCCc2ccccc2)N1C(=O)c1ccc(C#N)cc1", "Potency": "inconclusive: 56.2 µM [inhibitor, partial curve, poor fit]"}
{"smiles": "CCOC(=O)Cn1nnnc1CN(Cc1ccc(OC)cc1)Cc1cc2cc(CC)ccc2[nH]c1=O", "Potency": "inactive"}
{"smiles": "Cc1cc(=O)n(CC(=O)Nc2cc(Cl)ccc2C)c(C(C)C)n1", "Potency": "inactive"}
{"smiles": "COc1ccccc1NS(=O)(=O)c1cc2c(cc1Cl)NC(=O)CO2", "Potency": "inconclusive: 50.1 µM [inhibitor, partial curve]"}
{"smiles": "CCOC(=O)c1cnc2ccc(OCC)cc2c1N1CCN(c2ccccc2OC)CC1", "Potency": "inconclusive: 11.2 µM [inhibitor, full curve]"}
{"smiles": "CC(C)NS(=O)(=O)c1ccc(NC(=O)C(C)OC(=O)CCC(=O)c2cccs2)cc1", "note": "(configuration not stated)", "Potency": "inactive"}
{"smiles": "CN1CCN(c2cc3c(c4c2[nH]c2ccccc24)C(=O)CC(C)(C)C3)CC1", "Potency": "inactive"}
{"smiles": "CCCc1cc(=O)[nH]c(SCC(=O)Nc2sc3c(c2C#N)CCCC3)n1", "Potency": "inconclusive: 70.8 µM [inhibitor, single point]"}
{"smiles": "COc1cccc(CN2CCN(Cc3cc(OC)c(OC)c(OC)c3)CC2)c1OC", "Potency": "active: 56.2 µM"}
{"smiles": "Cc1onc(-c2ccccc2Cl)c1C(=O)N(Cc1nc(-c2ccccc2)no1)C1CCCCC1", "Potency": "inconclusive: 5.62 µM [inhibitor, single point]"}
